# From PubChem BioAssay AID624296 (National Center for Advancing Translational Sciences (NCATS), 2012)
# Out of some 350,000 compounds screened, about 9,900 (2.8%) were called active. This list was built around the results that the source calls inconclusive (neither active nor inactive); the mix of calls is not that of the screen. Calls come from the whole dose curve; as a rule, active = well fitted activation curve with a large enough effect; inconclusive = small, poorly fitted or top-dose-only effect; inactive = no such curve, though single readings can be large or run the other way. No potency is given beside an inconclusive call; the fits are too rough.
# Assay: A quantitative high throughput screen for small molecules that induce DNA re-replication in MCF 10a normal breast cells. For activity, positive = re-replication: % of control where 0% means no effect. Note: nearly all actives have a fitted effect of over 50% in size.
# Conditions: MCF 10A DNA re-replication, Hoechst nuclear intensity, 48 h; activity, positive = re-replication: at 46.1 µM (top of the series)
# Potency is the fitted concentration of half-maximal effect; tags give direction and shape of the fitted curve.
SMILES,Potency,"activity, positive = re-replication"
CC(Cc1cccs1)NC(=S)Nc1ccc(Cl)cc1 (centres undefined),active: 20.6 µM,–
Cc1cccc(N2C(=O)/C(=C\c3ccc(C(=O)O)cc3)c3ccccc3C2=O)c1,–,inactive: 3.45%
O=C(Cn1nc(Cl)nc1Cl)c1cc2ccccc2oc1=O,"inconclusive [activator, partial curve, poor fit]",–
O=C(NCCCc1ccccc1)c1cccc(NC(=O)C2CCCC2)c1,"inconclusive [activator, full curve, poor fit]",–
Cc1ccc(C(=O)OCC(=O)NNC(=O)c2ccc([N+](=O)[O-])cc2)o1,–,inactive: -1.36%
Cc1noc(C)c1CSc1ccccc1C(=O)N1CCN(c2ccccc2)CC1,"inconclusive [activator, single point]",–
Cc1cccc(-c2nc(CN3CCCC(C(=O)NC4CCCCCC4)C3)c(C)o2)c1 (centres undefined),"inconclusive [activator, partial curve, poor fit]",–
O=C(NCC1CCCO1)c1cc2ccccc2nc1Cl (centres undefined),active: 0.731 µM,–
CCCC[C@@H]1CNC(=S)N1CCc1cccc2ccccc12,"inconclusive [activator, partial curve, poor fit]",–
CCC(=O)c1ccc(N2CCN(C(=O)c3ccccc3)CC2)c(F)c1,–,inactive: 9.44%
COc1cccc2cc(-c3nc(-c4cccs4)cs3)c(=O)oc12,"inconclusive [activator, partial curve]",–
CCOC(=O)C1CCN(C(=O)c2ccc(OCC(=O)Nc3ccc(OCC)cc3)c(OC)c2)CC1,"inconclusive [activator, partial curve, poor fit]",–
CN(CC(=O)Nc1ccc(Cl)cc1)CC(=O)Nc1ccc(F)c(F)c1F,–,inactive: -0.553%
COc1ccc(C(=O)NC2CC(C)(C)Cc3c2cnn3-c2ccccc2)c(OC)c1 (centres undefined),"inconclusive [activator, partial curve]",–
Cc1ccc(C(=O)NC2CCCC(C)C2C)cc1S(=O)(=O)N1CCCCC1 (centres undefined),"inconclusive [activator, partial curve, poor fit]",–
COc1ccc(-c2cc(C(F)(F)F)nc(NCc3cccnc3)n2)cc1,"inconclusive [activator, single point]",–
CC(C)=CCc1c(O)cc(O)c2c(=O)c3c(CC=C(C)C)c(O)ccc3oc12,"inconclusive [activator, full curve]",–
CCC(=O)c1c(CC)c2n3c1CC[C@H]3CCC2,"inconclusive [activator, full curve, poor fit]",–
N=c1c(S(=O)(=O)c2ccc(Cl)cc2)cc2c(=O)n3ccccc3nc2n1CCN1CCOCC1,–,inactive: 22.4%
CCCc1c(C(=O)N/N=C/c2ccccc2OCc2ccc(F)cc2)nnn1-c1nonc1N,"inconclusive [activator, single point]",–
O=C(CCNC(=O)c1ccc(Cl)cc1)Nc1ccc(S(=O)(=O)N2CCOCC2)cc1,–,inactive: 16.2%
CN(CC1CCCN(CCc2ccc(Cl)cc2)C1)C(=O)c1ccoc1 (centres undefined),–,inactive: 16.9%
CC1(C)OC(=O)N(c2ccccc2)C12C=Cc1cc(Br)ccc1O2 (centres undefined),"inconclusive [activator, partial curve, poor fit]",–
Cc1ccsc1CNCc1cc(Cl)ccc1O,"inconclusive [activator, partial curve, poor fit]",–
Cc1ccccc1NS(=O)(=O)c1ccc(C(=O)NCC(c2ccco2)N(C)C)cc1 (centres undefined),"inconclusive [activator, partial curve, poor fit]",–

SMILES,Potency,"activity, positive = re-replication"
O=C(NCc1cccs1)C12CC3CC(CC(C3)C1)C2,"inconclusive [activator, partial curve, poor fit]",–
Cc1ccccc1OCC(=O)OCC(=O)Nc1cc(C(F)(F)F)ccc1N1CCOCC1,"inconclusive [activator, partial curve, poor fit]",–
CCC(CC)c1nnc(NC(=O)c2c(-c3ccccc3)noc2C)s1,"inconclusive [activator, single point]",–
O=C(O)c1ccc2c(c1)C(=O)N(c1cccc(C(=O)/C=C/c3ccccc3)c1)C2=O,active: 18.4 µM,–
COCCNC(=O)c1cccc(Nc2nc(-c3ccccc3)c3cc(Cl)ccc3n2)c1,active: 2.59 µM,–
Cc1cc(C)n(-c2ccc(C(=O)N3CCN(S(=O)(=O)c4cccc(Br)c4)CC3)cc2)n1,"inconclusive [activator, partial curve, poor fit]",–
Cc1ccc(C(=O)NC(=S)Nc2ccc3c(c2)OCCO3)c(C)c1,"inconclusive [activator, partial curve]",–
Cc1cccc(NC(=O)c2ccc([N+](=O)[O-])o2)c1C,active: 13 µM,–
Nc1c(C(=O)c2ccccc2)sc(Nc2ccccc2)c1S(=O)(=O)c1ccccc1,"inconclusive [activator, partial curve]",–
COc1ccc(CNc2ccc3c(c2)nc(C)n3C)cc1OC,"inconclusive [activator, partial curve, poor fit]",–
CCOC(=O)N1CC=C2C(C#N)=C(N)C(C#N)(C#N)[C@H](c3ccccc3OCC)[C@H]2C1,"inconclusive [activator, single point]",–
CC1(c2ccccc2)NC(=O)N(CC(=O)Nc2ccccc2C(=O)NC2CC2)C1=O (centres undefined),–,inactive: 0.015%
O=C(c1cc(COc2c(F)cccc2F)on1)N1CCc2ccccc2C1,–,inactive: 11%
O=C(NCC1CC1)Nc1cccs1,–,inactive: -0.581%
CCN(c1ccccc1)S(=O)(=O)c1ccc(OC)c(NC(=O)c2ccc(=O)[nH]c2)c1,–,inactive: 4.58%
CC(C)(C)c1ccc(C(=O)Nc2sc3c(c2C(=O)O)CCC3)cc1,active: 20.6 µM,–
COc1ccc(Cn2cc(F)c(=O)n(C)c2=O)cc1[N+](=O)[O-],–,inactive: 5.47%
COc1ccc(NC(=S)NCc2cccs2)cc1,"inconclusive [activator, full curve, poor fit]",–
Cc1nc2cc(NC(=O)Nc3ccc(Br)cc3)ccc2o1,–,inactive: -17.4%
CCOc1cc(N2CCOCC2)c(OCC)cc1NC(=O)Cc1ccccc1,"inconclusive [activator, partial curve, poor fit]",–
Cc1nc(SCC(=O)NCc2ccco2)c2c(C)c(C)sc2n1,–,inactive: 16.7%
CCCOC(=O)C(=O)NNc1ccccc1,–,inactive: 21%
C=CCNC(=S)N1N=C(c2ccco2)CC1c1ccco1 (centres undefined),–,inactive: -20.9%
CCOC(=O)/C(=C/C=C1\Sc2cc(OCC)c(OCC)cc2N1CC)C(C)=O,–,inactive: 20.4%
Cc1cccc(OCc2nnc(SCC(=O)c3cccs3)n2C)c1C,–,inactive: 2.36%

SMILES,Potency,"activity, positive = re-replication"
C=C(C)CNC(=S)N/N=C/c1ccc([N+](=O)[O-])cc1,"inconclusive [activator, single point]",–
COc1ccc(C)cc1S(=O)(=O)N1CCN(C(=O)c2ncoc2-c2ccc(C)cc2)CC1,"inconclusive [activator, single point]",–
O=c1[nH]c2cc3c(cc2cc1CN(CCO)S(=O)(=O)c1ccccc1)OCCO3,–,inactive: -0.696%
COc1ccccc1C(=O)Nc1ccc2c(c1)OCCO2,–,inactive: 17.5%
Cc1nsc(Nc2ccc([N+](=O)[O-])cc2)c1C#N,–,inactive: 0.0041%
O=C(c1cc(COc2ccc(F)cc2Cl)on1)N1CCCCC1c1cccnc1 (centres undefined),"inconclusive [activator, single point]",–
COc1ccc(Cl)cc1CNCCCSc1ncccn1,"inconclusive [activator, single point]",–
Cc1noc(C)c1COc1cccc(C(=O)NCCc2c[nH]c3ccccc23)c1,"inconclusive [activator, single point]",–
CN(C)c1ccc(/C=C/C(=O)c2ccc(C(C)(C)C)cc2)cc1[N+](=O)[O-],"inconclusive [activator, full curve, poor fit]",–
C=Cc1ccc(S(=O)(=O)O)cc1,–,inactive: -7.14%
CC(=O)Nc1ccc(S(=O)(=O)Oc2ccc(C(=S)N3CCCCC3)cc2)cc1,–,inactive: 19.1%
COc1ccc(C(=O)NCc2n[nH]c(=S)n2-c2ccccc2)cc1OC,"inconclusive [activator, single point]",–
CCOC(=O)c1c(C)oc2c1c(CN1CCN(CCO)CC1)c(O)c1ccccc12,"inconclusive [activator, single point]",–
Cn1cccc1-c1nc2ccccc2n1Cc1ccccc1,active: 11.2 µM,–
Cc1ccccc1C(=O)Nc1ccccc1C(=O)NCc1ccccc1,"inconclusive [activator, partial curve, poor fit]",–
CC(=O)C1=C(O)C(=O)N(c2nccs2)C1c1ccccc1 (centres undefined),–,inactive: -2.12%
O=C(Nc1ccccc1)C1C2/C=C\CCCCC21 (centres undefined),–,inactive: 9.1%
COc1ccc(CC(=O)Nc2nc(-c3ccc(OC)c(OC)c3)cs2)cc1OC,–,inactive: 0.422%
CCC1=Nc2cc(C(=O)NCc3ccco3)ccc2Sc2ccc(Cl)cc21,active: 3.66 µM,–
COc1cc(CC(=O)Nc2ccc(Cl)c(C(F)(F)F)c2)cc(OC)c1OC,"inconclusive [activator, partial curve, poor fit]",–
COc1cccc(NC(=O)CN(C)C(=O)c2ccc(-n3cncn3)c([N+](=O)[O-])c2)c1,–,inactive: -3.11%
COc1ccc(CNS(=O)(=O)c2ccc(F)c(C(=O)Nc3ccccc3OC)c2)cc1,–,inactive: -21.8%
COCCn1c(=N)c(S(=O)(=O)c2ccc(F)cc2)cc2c(=O)n3cccc(C)c3nc21,active: 3.66 µM,–
CCN(CC)C(=O)Cn1cc(S(=O)(=O)CC(=O)Nc2ccc(F)cc2F)c2ccccc21,"inconclusive [activator, single point]",–
